# Experimental data from PubChem BioAssay AID1347165 (National Center for Advancing Translational Sciences (NCATS), 2019).
# About 5,700 (2.6%) of roughly 220,000 compounds were called active. Inconclusive results, whose numbers are uncertain, are shown with a selection of clear calls. Calls follow the shape of the dose curve; as a rule, active = well fitted inhibition curve with a large enough effect; inconclusive = small, poorly fitted or top-dose-only effect; inactive = no such curve, though single readings can be large or run the other way. A potency beside an inconclusive call is a rough fit, not a confirmed value.
# Biological target: Lysine-specific demethylase 5B (Homo sapiens) (UniProt Q9UGL1)
# Sequence of UniProt Q9UGL1 (Q9UGL1 whole entry, looked up): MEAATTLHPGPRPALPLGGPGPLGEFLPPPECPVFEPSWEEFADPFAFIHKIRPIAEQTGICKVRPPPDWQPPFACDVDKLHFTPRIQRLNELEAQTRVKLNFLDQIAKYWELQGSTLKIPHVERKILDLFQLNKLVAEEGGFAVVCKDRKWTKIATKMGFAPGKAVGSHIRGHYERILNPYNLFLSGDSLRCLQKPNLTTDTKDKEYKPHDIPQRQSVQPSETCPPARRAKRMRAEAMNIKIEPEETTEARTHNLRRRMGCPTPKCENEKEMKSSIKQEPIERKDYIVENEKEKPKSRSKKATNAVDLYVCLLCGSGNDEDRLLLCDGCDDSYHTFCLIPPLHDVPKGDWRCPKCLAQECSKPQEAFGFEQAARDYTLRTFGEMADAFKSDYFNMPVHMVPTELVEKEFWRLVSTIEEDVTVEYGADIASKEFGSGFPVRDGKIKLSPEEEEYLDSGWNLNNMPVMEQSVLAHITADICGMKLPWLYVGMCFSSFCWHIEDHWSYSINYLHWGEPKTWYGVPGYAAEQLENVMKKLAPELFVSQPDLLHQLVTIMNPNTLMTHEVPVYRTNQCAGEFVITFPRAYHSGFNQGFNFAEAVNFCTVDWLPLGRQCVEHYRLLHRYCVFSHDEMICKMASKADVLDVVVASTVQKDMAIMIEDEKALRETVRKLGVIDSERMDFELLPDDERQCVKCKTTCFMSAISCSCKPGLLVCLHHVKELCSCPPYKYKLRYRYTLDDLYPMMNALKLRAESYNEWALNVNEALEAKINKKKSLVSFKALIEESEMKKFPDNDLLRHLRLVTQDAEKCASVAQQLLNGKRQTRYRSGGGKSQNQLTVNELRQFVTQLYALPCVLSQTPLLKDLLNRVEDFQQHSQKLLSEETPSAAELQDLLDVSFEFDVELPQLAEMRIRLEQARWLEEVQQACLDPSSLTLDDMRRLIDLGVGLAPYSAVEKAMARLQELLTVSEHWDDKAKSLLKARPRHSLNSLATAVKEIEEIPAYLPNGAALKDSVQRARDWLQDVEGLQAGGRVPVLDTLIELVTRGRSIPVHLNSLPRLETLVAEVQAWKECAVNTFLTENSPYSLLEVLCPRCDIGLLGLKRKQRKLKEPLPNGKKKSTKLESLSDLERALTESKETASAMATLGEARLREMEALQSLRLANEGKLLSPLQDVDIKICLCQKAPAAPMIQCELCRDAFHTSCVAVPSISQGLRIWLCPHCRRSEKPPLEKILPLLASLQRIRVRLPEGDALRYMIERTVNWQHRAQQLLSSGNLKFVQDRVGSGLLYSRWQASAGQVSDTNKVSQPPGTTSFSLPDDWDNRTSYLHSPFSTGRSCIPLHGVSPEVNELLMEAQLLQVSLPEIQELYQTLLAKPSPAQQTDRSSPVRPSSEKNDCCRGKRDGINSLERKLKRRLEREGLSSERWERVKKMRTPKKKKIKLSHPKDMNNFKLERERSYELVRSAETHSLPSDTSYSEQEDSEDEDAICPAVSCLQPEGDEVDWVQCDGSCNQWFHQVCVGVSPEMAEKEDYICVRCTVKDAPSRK
# Assay: Primary screen for KDM5B Histone Demethylases FDH-coupled qHTS; also: nearly all actives have a fitted effect of over 70% in size; as to activity change, negative = inhibition: 0% is about no effect
# Settings: FDH-coupled NADH fluorescence (FDH is formaldehyde dehydrogenase); activity change, negative = inhibition: at 57.7 µM (top of the series) unless noted
# Method in brief: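 Coupled FDH/NAD⁺ fluorescence readout. KDM5BΔAP 200 nM final; compound titration, 10 min RT preincubation; substrate mix 12.5 µM H3K4me3, 25 µM 2-OG, 50 µM Fe(II), 100 µM ascorbate, 0.25 mM NAD⁺, 0.25 U/mL FDH; ΔRFU over 30 min.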
# Potency is read from the fitted curve at half-maximal effect; tags tell the direction and shape of the fitted curve.
Compound,Potency,"activity change, negative = inhibition"
Cc1ccc(-c2c(CN3CCN(c4cccc(C)c4)C(C)C3)csc2C)cc1 (stereo not drawn),"inconclusive: 35.5 µM [inhibitor, single point]",–
CCc1cccc(CC)c1NC(=O)C(C)Sc1ccc(C)cc1 (stereo not drawn),–,inactive: 12.7%
COC(=O)c1ccc(C(=O)OC)c(NC(=O)COC(=O)CC2Sc3ccccc3NC2=O)c1 (stereo not drawn),–,inactive: -12.1%
CCCNC(=O)c1cc(-c2cccnc2)nc2ccccc12,–,inactive: 11.7%
COc1ccc(C(C)NC(=O)c2cc3c(N4CCSCC4)nc(C)cn3n2)cc1OC (stereo not drawn),active: 6.31 µM,–
Cc1ccc(S(=O)(=O)Cc2nc(-c3ccc(C(=O)NCCCN4CCOCC4)cc3)oc2C)cc1,"inconclusive: 31.6 µM [inhibitor, partial curve, poor fit]",–
Cc1ccc(C)c(NC(=O)CS(=O)(=O)c2cccc3nsnc23)c1,–,inactive: 24.2%
OC[C@@H]1O[C@H](CNC2CCOCC2)[C@H](N2CCOCC2)[C@@H]1O,–,inactive: 32.5% [at 86.2 µM]
COc1ccc(CCNCc2ccccc2N2CCCC2)cc1,"inconclusive: 31.6 µM [inhibitor, partial curve, poor fit]",–
COC[C@@H]1CN(C(=O)c2cc(Cl)ccc2OC)C[C@H]1C(N)=O,–,inactive: -7.78%
COc1cccc(-c2nc(CS(=O)(=O)CC(=O)NCc3ccccc3Cl)c(C)o2)c1,–,inactive: -1.85%
Cc1ccc(NC(=O)C2CC(=O)N(c3n[nH]c4cccc(F)c34)C2)c(C)c1 (stereo not drawn),active: 22.4 µM,–
CC(C)(C)c1cc(Cn2cc(C3CCCNC3)nn2)[nH]n1 (stereo not drawn),"inconclusive: 11.2 µM [inhibitor, partial curve, poor fit]",–
COc1ccccc1-c1nc(C#N)c(NCCN(C)C)o1,"inconclusive: 22.4 µM [inhibitor, partial curve, poor fit]",–
N=c1c(C(=O)NCCc2ccccc2)cc2c(=O)n3ccccc3nc2n1CCCN1CCOCC1,"inconclusive: 28.2 µM [inhibitor, partial curve, poor fit]",–
O=C(Nc1cccc(F)c1)N1CCc2c(nc3cc(-c4ccccc4Cl)[nH]n3c2=O)C1,"inconclusive: 20 µM [inhibitor, single point]",–
Cc1ccc(CNC(=O)c2oc3c(c2C)-c2nn(Cc4ccc(Cl)cc4)cc2CC3)cc1,"inconclusive: 28.2 µM [inhibitor, partial curve, poor fit]",–
Cn1c(/C=C/c2ccc(Br)cc2)nc2ccccc2c1=O,"inconclusive: 20 µM [inhibitor, partial curve, poor fit]",–
Oc1ccc(/C=C/c2nc(-c3ccc(F)cc3)cs2)cc1,"inconclusive: 28.2 µM [inhibitor, partial curve, poor fit]",–
COc1ccc(-n2ncc3c(NC(C)(C)CO)ncnc32)cc1,"inconclusive: 35.5 µM [inhibitor, single point]",–
CCOc1ccc(NC(=O)Cn2c3ncccc3c(=O)n2-c2ccc(CC)cc2)cc1,"inconclusive: 28.2 µM [inhibitor, single point]",–
Cn1ccnc1C(=O)N1CCCCCCNC(=O)[C@@H]2C[C@@H](c3nc(-c4cccnc4)no3)C[C@@H]21,–,inactive: -16.5%
CC(C)(C)OC(=O)NC(C)(CN)c1ccccn1 (stereo not drawn),–,inactive: 6.86% [at 149 µM]
CCOc1ccc(C(=O)/C=C/c2ccccc2O)cc1,"inconclusive: 39.8 µM [inhibitor, single point]",–

Compound,Potency,"activity change, negative = inhibition"
COCCNc1ncnc2c1c(-c1ccccc1)cn2-c1ccc(C)c(Cl)c1,"inconclusive: 20 µM [inhibitor, partial curve, poor fit]",–
CCC(CC)NC(=O)C1CCN(C2=NS(=O)(=O)c3ccccc32)CC1,–,inactive: 17.4%
Cc1ccc(-c2ccc(=O)n(CC(=O)NCCN(CC(C)C)CC(C)C)n2)cc1,"inconclusive: 28.2 µM [inhibitor, partial curve, poor fit]",–
CCc1ccc(C(=O)N(CC#N)C2CC2)cc1,–,inactive: 15.4%
CCC(C)CNC(=S)NC1CC1 (stereo not drawn),–,inactive: 7.42%
CCCn1c(SCC(=O)Nc2ccc(F)cc2)nc(O)cc1=O,–,inactive: -14.4%
COc1ccc(/C=C/C(=O)OCCN(C)C(C)(C)C)cc1,–,inactive: -14.7%
CN(C)C(=O)c1n[nH]c2c1CN(C(=O)c1cccc(Cl)c1)CC2,–,inactive: -7.51%
O=C(/C=C/c1ccc(C(F)(F)F)cc1)c1cccc(N2CCCC2=O)c1,–,inactive: -14.6%
CCSc1nnc2n(CC)c(=O)c3c(n12)-c1ccccc1CC31CCCCC1,–,inactive: -4.65%
Cc1cc(C)n(CC(=O)N[C@@H]2CN(c3ncccn3)C[C@H]2CN(C)C)n1,active: 28.2 µM,–
COc1ccc(Cc2nc3nccc(-c4ccc(OC)cc4F)n3n2)cc1,active: 28.2 µM,–
COc1ccc(NC(=O)N(CCC(C)C)C(C)c2cccs2)c(OC)c1 (stereo not drawn),–,inconclusive: -41.9% [inhibitor]
O=C(Cc1cccs1)NCc1nnc2ccc(-c3ccccc3)nn12,–,inactive: -19.6%
Cc1ccc(C2CCN(C(=O)c3cnn(-c4cccc(Cl)c4)c3C3CCN(C(=O)OC(C)(C)C)CC3)C2)cc1 (stereo not drawn),"inconclusive: 39.8 µM [inhibitor, single point]",–
COc1ccc([S+](=O)([O-])c2nnn3c2nc(NC2CCCC2)c2ccccc23)cc1,"inconclusive: 3.55 µM [inhibitor, partial curve, poor fit]",–
COc1ccc(-c2cc3c(ccn3C)c(C(=O)NCc3cccnc3)n2)cc1OC,active: 35.5 µM,–
O=C1CCN(C(=O)C2CCN(C(=O)c3ccncc3)CC2)CCCCCCN1,–,inactive: -21.2%
Cc1ccc2c(CN(Cc3ccco3)Cc3ccco3)cc(=O)oc2c1C,"inconclusive: 20 µM [inhibitor, partial curve, poor fit]",–
O=C(CCc1nnn2c1CNCC2)NC1CC1,"inconclusive: 8.91 µM [inhibitor, partial curve]",–
Cc1cc(N/N=C/c2ccccc2[N+](=O)[O-])nc(-n2nc(C)cc2C)n1,"inconclusive: 39.8 µM [inhibitor, single point]",–
Cc1cc(C[C@@H]2COC[C@@H]2NC(=O)c2ccc(-n3cnnc3)cc2)on1,–,inactive: 3.38%
O=C(Cn1cnc(S(=O)(=O)N2CCCC2)c1)Nc1cccc(-c2ccno2)c1,–,inactive: 2.49%
O=C(NCc1ccco1)c1ccc(Cn2c(SCc3ccc(F)cc3)nc3cccnc32)cc1,"inconclusive: 31.6 µM [inhibitor, partial curve, poor fit]",–
